In PubChem BioAssay AID651876 (Broad Institute, 2012):
Not every entry of the source has a single result; some have several. This is not the full list of results. There may be further records.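 Rule for the calls: active = inhibition above 20% at 50 µM; inactive = the rest.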 Results that share an entry are repeated measurements in other runs, samples, wells, individuals or studies. Records carry a tag for their origin. The letters are not those of the source and start again with each entry.

Biological target: Kelch-like ECH-associated protein 1 (Homo sapiens) (UniProt Q14145)
Chain of UniProt Q14145 (Q14145 whole entry, looked up): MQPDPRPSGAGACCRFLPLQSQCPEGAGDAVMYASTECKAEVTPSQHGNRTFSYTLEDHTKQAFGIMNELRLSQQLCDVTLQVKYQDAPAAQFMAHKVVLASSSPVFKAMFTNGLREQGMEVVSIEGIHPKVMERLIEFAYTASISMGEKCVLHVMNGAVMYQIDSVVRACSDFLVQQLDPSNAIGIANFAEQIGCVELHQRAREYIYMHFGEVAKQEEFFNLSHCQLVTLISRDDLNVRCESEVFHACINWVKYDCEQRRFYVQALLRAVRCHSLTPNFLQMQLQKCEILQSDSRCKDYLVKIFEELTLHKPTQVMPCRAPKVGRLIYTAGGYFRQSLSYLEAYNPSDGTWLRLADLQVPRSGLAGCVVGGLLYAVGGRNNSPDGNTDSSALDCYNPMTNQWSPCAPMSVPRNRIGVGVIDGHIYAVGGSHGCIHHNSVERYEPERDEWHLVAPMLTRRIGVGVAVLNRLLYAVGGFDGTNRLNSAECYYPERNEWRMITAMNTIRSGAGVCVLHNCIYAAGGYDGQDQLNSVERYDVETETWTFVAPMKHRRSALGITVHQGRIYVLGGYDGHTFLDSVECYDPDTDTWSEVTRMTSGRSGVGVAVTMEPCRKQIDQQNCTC
Experiment: competitive SPR blockade of Keap1/Nrf2 binding – biophysical, dry powder, orthogonal assay for Keap1-Nrf2 interaction inhibitor project, confirmation (AID 651876)
Details: Keap1 Kelch binding to Nrf2 peptide, at 50 µM, stronger effect = higher value
How it was run: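 Test system: Keap1 Kelch domain, biochemical. Quantity: 40 nM Kelch domain. Also added: biotinylated 16mer Nrf2 peptide captured on streptavidin CM5 surface. Doses: compound at 5 or 50 µM. Times: room-temperature preincubation, 25 °C binding. Signal: Double-referenced surface plasmon resonance, initial association-phase slopes. Measure: % inhibition via free Kelch domain fraction.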

| SMILES | inhibition |
| --- | --- |
| Cc1ccc(S(=O)(=O)NC(=O)[C@@H]2c3ccccc3CCN2C(=O)[C@@H]2CCCC[C@@H]2C(=O)O)cc1 | 39.6% [sample A] and inactive: 3.9% [sample B] |
| O=C(O)[C@H]1CCCC[C@H]1C(=O)N1CCC2=C(CCCC2)C1CN1C(=O)c2ccccc2C1=O (some centres not stated) | 65% [sample A] and inactive: 12.6% [sample B] |
